Screen size: about 310,000 compounds; about 2,200 (0.71%) showed an effect of 50% or more. Effects have a minus sign here. Some of the results follow.

Sequence of human ether-à-go-go-related gene (hERG) potassium channel (Q12809 whole entry, looked up): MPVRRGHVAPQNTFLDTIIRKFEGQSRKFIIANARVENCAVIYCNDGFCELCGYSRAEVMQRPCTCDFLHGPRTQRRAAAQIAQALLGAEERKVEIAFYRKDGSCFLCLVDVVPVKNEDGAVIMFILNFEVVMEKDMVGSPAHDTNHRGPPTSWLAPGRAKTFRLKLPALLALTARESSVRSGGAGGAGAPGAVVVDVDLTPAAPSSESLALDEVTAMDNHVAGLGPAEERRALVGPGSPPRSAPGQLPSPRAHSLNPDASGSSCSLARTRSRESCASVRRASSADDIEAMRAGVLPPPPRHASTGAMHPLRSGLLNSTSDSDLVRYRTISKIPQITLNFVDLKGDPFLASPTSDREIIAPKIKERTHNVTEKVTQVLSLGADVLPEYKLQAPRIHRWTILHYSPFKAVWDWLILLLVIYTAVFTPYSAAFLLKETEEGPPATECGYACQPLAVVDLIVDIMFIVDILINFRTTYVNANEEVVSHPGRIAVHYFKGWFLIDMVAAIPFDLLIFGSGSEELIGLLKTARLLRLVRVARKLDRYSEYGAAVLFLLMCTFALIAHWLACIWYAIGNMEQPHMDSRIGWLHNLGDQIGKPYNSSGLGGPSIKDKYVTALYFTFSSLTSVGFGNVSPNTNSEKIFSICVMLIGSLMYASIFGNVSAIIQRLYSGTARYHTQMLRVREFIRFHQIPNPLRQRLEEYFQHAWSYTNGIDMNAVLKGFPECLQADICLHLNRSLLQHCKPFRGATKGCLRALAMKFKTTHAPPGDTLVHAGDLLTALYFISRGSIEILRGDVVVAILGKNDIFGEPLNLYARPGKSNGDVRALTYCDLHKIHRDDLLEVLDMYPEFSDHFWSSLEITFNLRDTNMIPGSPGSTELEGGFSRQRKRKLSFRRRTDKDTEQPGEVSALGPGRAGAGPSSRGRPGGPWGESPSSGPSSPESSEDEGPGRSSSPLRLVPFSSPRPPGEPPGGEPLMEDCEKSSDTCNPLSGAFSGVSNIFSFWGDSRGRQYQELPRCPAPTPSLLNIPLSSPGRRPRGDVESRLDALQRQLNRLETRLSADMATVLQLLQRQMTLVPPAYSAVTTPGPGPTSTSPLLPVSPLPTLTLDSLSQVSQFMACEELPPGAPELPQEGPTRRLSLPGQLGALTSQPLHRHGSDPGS

The assay has as its target human ether-à-go-go-related gene (hERG) potassium channel (human, UniProt Q12809). Kind of assay: primary screen, population patch clamp on CHO cells stably expressing hERG.
Regarding `Cc1cc(=O)nc2c3ccccc3n(CC(=O)NC3CCCCC3)n12`, the “hERG current change (%, negative = inhibition) at 1uM” value is listed as 15.2%.
For the molecule `Cc1ccc2c(c1)N(C(=O)c1ccco1)C(C)(C)c1ssc(=S)c1-2`, the “hERG current change (%, negative = inhibition) at 1uM” value is given as 1.58%.
As to `COc1ccc(-c2noc(CCC(N)=O)n2)cc1OC`, the “hERG current change (%, negative = inhibition) at 1uM” value came to 8.32%.
Take `O=C(c1cccc(N2CCNC2=O)c1)N1CCCC(Nc2cccc(F)c2)C1` (stereo not shown): the “hERG current change (%, negative = inhibition) at 1uM” value stood at 13.6%.
As for `Cc1cc(CNC(=O)C(C)n2nc(C)c([N+](=O)[O-])c2C)c2ccccc2n1` (stereo not shown), the “hERG current change (%, negative = inhibition) at 1uM” value came out at 10.7%.
Under `Cc1cc(C(=O)CS(=O)(=O)c2ccc(F)cc2)cc(C)c1OC(=O)N(C)C` stands 4.73%; under `CC(NC(=O)COC(=O)CCc1ccccc1)c1ccccc1` (stereo not shown), 11.2%.
With `COc1ccc(-c2cccc(NC(=O)COc3ccc(Cl)cc3)c2)nn1`, the “hERG current change (%, negative = inhibition) at 1uM” value turned out to be 10%.
Regarding `CCc1nnc(NC(=O)c2cc(OC)c(OC)cc2[N+](=O)[O-])s1`, the “hERG current change (%, negative = inhibition) at 1uM” value is given as 10.5%.
Take `CCC(=O)c1ccc(OCC(O)Cn2nc(C)c(Br)c2C)cc1` (stereo not shown): the “hERG current change (%, negative = inhibition) at 1uM” value was -100%.
In the case of `Cl.Clc1ccccc1CSC1=NCCN1`, the “hERG current change (%, negative = inhibition) at 1uM” value stood at 6.35%.
As to `CCOc1ccc(NS(=O)(=O)c2cnc(Cl)c(Cl)c2)cc1`, the “hERG current change (%, negative = inhibition) at 1uM” value is on record as -3.18%.
Take `c1ccc(-n2ncc3c(NCc4ccco4)ncnc32)cc1`: the “hERG current change (%, negative = inhibition) at 1uM” value is 0.175%.
Consider `CC(=O)N1CC(C)Oc2ccc(S(=O)(=O)NC(CC(=O)O)c3cc(C)ccc3C)cc21` (stereo not shown), for which the “hERG current change (%, negative = inhibition) at 1uM” value worked out at 14.1%.
For `Cc1onc(-c2c(F)cccc2Cl)c1C(=O)c1ccccc1`, the “hERG current change (%, negative = inhibition) at 1uM” value came to 13.7%.
Under `CCCCn1c(-c2ccoc2C)n[nH]c1=S` stands -0.37%; under `Fc1ccccc1N1CCN(c2nc3ccccc3n3nnnc23)CC1`, 8.38%.
Consider `COc1ccc(C(=O)CSc2nnc(CNC(=O)c3ccco3)n2C)cc1OC`, for which the “hERG current change (%, negative = inhibition) at 1uM” value is on record as 17.5%.
As to `COC(=O)C(CO)Nc1ncnc2onc(-c3ccc(F)cc3)c12` (stereo not shown), the “hERG current change (%, negative = inhibition) at 1uM” value worked out at 14.4%.
On to `O=c1c2ccccc2nc(-c2cccc(Cl)c2)n1O`, for which the “hERG current change (%, negative = inhibition) at 1uM” value worked out at 9.71%.
As for `O=C(COC(=O)c1ccc(F)c(S(=O)(=O)N2CCOCC2)c1)NC1CC1`, the figure is 2.24%.
Turning to `O=c1c2ccccc2cnn1Cc1ccc(Br)cc1F`, the “hERG current change (%, negative = inhibition) at 1uM” value worked out at 4.03%.
With `COc1cc(S(=O)(=O)N2CCOCC2)ccc1NC(=O)CSc1nnc(N)s1`, the “hERG current change (%, negative = inhibition) at 1uM” value is -4.99%.
As to `CCOC(=O)c1nnn(-c2nonc2-n2cccc2)c1CN1CCCCC1`, the “hERG current change (%, negative = inhibition) at 1uM” value is -3.02%.
For `O=C(NCc1ccc2c(c1)OCO2)c1ccc(-c2ccc(Cl)cc2)o1`, the “hERG current change (%, negative = inhibition) at 1uM” value turned out to be 11.8%.
On to `CCn1c(=O)c(CCC(=O)NCCN2CCOCC2)c(C)c2c(C)nn(-c3ccccc3)c21`, for which the “hERG current change (%, negative = inhibition) at 1uM” value is listed as -2.1%.
As to `Cc1ccc(C(=O)Nc2ccc3cn[nH]c3c2)cc1S(=O)(=O)N1CCCCC1`, the “hERG current change (%, negative = inhibition) at 1uM” value is reported as 6.99%.
Turning to `COc1ccc(-n2c(SCC(=O)Nc3sc4c(c3C#N)CCCC4)nnc2-c2ccc(O)cc2)cc1`, the “hERG current change (%, negative = inhibition) at 1uM” value is -3.18%.
Turning to `Cc1cc(C(=O)N(C)CC(=O)Nc2ccc(Cl)c(C(F)(F)F)c2)no1`, the “hERG current change (%, negative = inhibition) at 1uM” value worked out at 15.5%.
As for `Cn1c(SCc2nc(-c3ccc(Br)cc3)no2)nnc1-c1ccco1`, the “hERG current change (%, negative = inhibition) at 1uM” value is recorded as -20.2%.
On to `Cc1ccc(NC(=S)NNC(=O)C2CC2c2ccc(C)cc2)cc1` (stereo not shown), for which the “hERG current change (%, negative = inhibition) at 1uM” value was -10.4%.
As to `O=C(COC(=O)C(Cc1ccccc1)NC(=O)c1ccc(Cl)cc1)c1ccc(Cl)cc1` (stereo not shown), the “hERG current change (%, negative = inhibition) at 1uM” value is on record as 2.97%.
Take `Cc1cc(C(=O)CSc2nnc3ccccn23)c(C)n1-c1ccccc1`: the “hERG current change (%, negative = inhibition) at 1uM” value is listed as -10.6%.
With `Cc1nc2cc(NC(=O)C3COc4ccccc4O3)ccc2s1` (stereo not shown), the “hERG current change (%, negative = inhibition) at 1uM” value stood at 12.9%.
Consider `C=CCN(c1ccccc1)S(=O)(=O)c1cccc(C(=O)NNC(=O)c2ccncc2)c1`, for which the “hERG current change (%, negative = inhibition) at 1uM” value is -5.29%.
Turning to `CN(C)C(CNC(=O)c1ccc2ccccc2n1)c1ccccc1` (stereo not shown), the “hERG current change (%, negative = inhibition) at 1uM” value was 14.5%.
As for `N#C/C(C(=O)NCc1ccco1)=C1/SC(Cc2ccc(Cl)cc2)C(=O)N1c1ccccc1` (stereo not shown), the figure is 6.62%; as for `Cn1cccc1C(=O)NCCc1ccc(Cl)cc1`, 8.8%; as for `CNCCC1Sc2ccccc2Oc2ccccc21.O=C(O)C(=O)O` (stereo not shown), -6.55%.
Turning to `CN(C)c1ccc2c(c1)N=C(c1ccco1)OP2(=S)N1CCOCC1` (stereo not shown), the “hERG current change (%, negative = inhibition) at 1uM” value came to 12.6%.
As for `COc1cccc(OC)c1OC(=O)/C=C/c1ccc(C)o1`, the figure is 10.1%.
With `Cc1ccc2c(c1)-c1c(cnn1CC(=O)N1CCCN(Cc3ccccc3F)C1)CO2`, the “hERG current change (%, negative = inhibition) at 1uM” value amounted to 7.57%.
On to `O=C(/C=C/c1ccco1)Nc1cccc(-c2nc3ccccc3[nH]2)c1`, for which the “hERG current change (%, negative = inhibition) at 1uM” value is -9.64%.
For the molecule `COc1cccc(C(=O)O/N=C(\N)c2ccncc2)c1OC`, the “hERG current change (%, negative = inhibition) at 1uM” value stood at 10.3%.
On to `O=S(=O)(N/N=C/c1c(F)cccc1Cl)c1ccccc1`, for which the “hERG current change (%, negative = inhibition) at 1uM” value turned out to be 2.89%.
As for `COc1ccc(NC(=O)CSc2nc3c([nH]c4ccccc43)c(=O)n2C)cc1`, the figure is 1.67%; as for `O=C(NNc1cccc(Cl)c1)c1cccnc1Oc1ccccc1`, 10.8%; as for `c1nc(NCCN2CCOCC2)c2sc3nc(N4CCOCC4)c4c(c3c2n1)CCC4`, -5.55%.
As for `CCOc1cccc2sc(=NC(=O)c3ccco3)n(CC(=O)OC)c12`, the “hERG current change (%, negative = inhibition) at 1uM” value came to 8.52%.
For `Cc1c(CNC(=O)C2CCC(=O)N(CCc3ccccc3)C2)cnn1C` (stereo not shown), the “hERG current change (%, negative = inhibition) at 1uM” value was found to be 9.31%.
As to `COc1cccc(CNC(=O)c2ccccc2SCC(=O)N2CCCC2)c1`, the “hERG current change (%, negative = inhibition) at 1uM” value was -5.92%.
Turning to `CCOC(=O)C(c1ccccc1)C(Nc1cc(C(F)(F)F)cc(C(F)(F)F)c1)c1ccccn1` (stereo not shown), the “hERG current change (%, negative = inhibition) at 1uM” value is recorded as 9.94%.
Regarding `CN1CCN(S(=O)(=O)c2ccc(N(C)Cc3ccc(OC(F)F)cc3)c([N+](=O)[O-])c2)CC1`, the “hERG current change (%, negative = inhibition) at 1uM” value is -12.6%.
For `CN(CC(=O)Nc1cccc(F)c1)C(=O)c1ccncc1`, the “hERG current change (%, negative = inhibition) at 1uM” value is listed as 3.81%.
Take `CCOC(=O)N1CCC(NC(=O)C2CCCN(Cc3nc(-c4cccc(C)c4)oc3C)C2)CC1` (stereo not shown): the “hERG current change (%, negative = inhibition) at 1uM” value is on record as -24.2%.
As for `CCOC(=O)c1cc(-c2ccc(OC(F)F)cc2)nc2c1c(=O)[nH]c(=O)n2C`, the figure is 1.44%; as for `CCOc1ccc(-c2c(C(=O)N/N=C/c3ccncc3)nnn2-c2nonc2N)cc1`, 6.39%.
Under `COc1ccccc1NC(=O)Nc1ccccc1C(=O)NCCCN1CCOCC1` stands 10.2%.
On to `O=C(OCc1ccc(Br)cc1)c1cccc(-c2nnc(-c3ccccc3)o2)c1`, for which the “hERG current change (%, negative = inhibition) at 1uM” value is on record as 9.76%.
For the molecule `Cc1cc(NC(=O)CSc2nc3cc(Cl)ccc3c(=O)n2CC(C)C)no1`, the “hERG current change (%, negative = inhibition) at 1uM” value was determined as 11.1%.
For `CC(C)c1ccccc1NC(=O)Nc1ccc2c(c1)OCO2`, the “hERG current change (%, negative = inhibition) at 1uM” value came out at 11.6%.
For `O=C(CN1C(=O)NC2(CCc3ccccc3C2)C1=O)NCC(F)(F)F` (stereo not shown), the “hERG current change (%, negative = inhibition) at 1uM” value was found to be 7.31%.
In the case of `O=C1C=CC(=O)N1Nc1ccc(Br)cc1`, the “hERG current change (%, negative = inhibition) at 1uM” value amounted to 17.7%.
Take `CCOC(=O)c1nn(-c2ccc(Cl)cc2C)ccc1=O`: the “hERG current change (%, negative = inhibition) at 1uM” value turned out to be 5.24%.
As for `O=c1[nH]cnc(O)c1C(c1cccc([N+](=O)[O-])c1)c1c(O)nc[nH]c1=O`, the figure is 12.5%; as for `Cc1ccccc1CSCCNC(=O)CCSc1ccccc1`, 18.9%.
Take `CCOc1ccc2nc(NS(=O)(=O)c3cccs3)sc2c1`: the “hERG current change (%, negative = inhibition) at 1uM” value turned out to be 18.3%.
On to `CCOC(=O)N1CCN(C(=O)c2ccc(S(=O)(=O)Nc3cccc(C(F)(F)F)c3)cc2)CC1`, for which the “hERG current change (%, negative = inhibition) at 1uM” value is 6.09%.
As to `CN(C)CCOc1ccccc1Cc1ccccc1.O=C(O)CC(O)(CC(=O)O)C(=O)O`, the “hERG current change (%, negative = inhibition) at 1uM” value is -19.8%.
`Oc1ccc(-c2c(-c3ccsc3)sc3ccccc23)cc1`: the “hERG current change (%, negative = inhibition) at 1uM” value is 13%.
For `Cc1cc(-c2ccco2)n(-c2ccccc2)n1`, the “hERG current change (%, negative = inhibition) at 1uM” value worked out at 16%.
As for `CC(=C/c1ccccc1)/C=N/NC(=O)c1cnccn1`, the figure is 13.3%; as for `NC(N)=Nc1cc2ccccc2c2ccccc12`, 7.56%; as for `CCCc1cc(=O)oc2c(C)c(OS(C)(=O)=O)ccc12`, -1.33%.
Consider `COC(=O)Cc1c(O)ccn(CCc2ccccc2)c1=O`, for which the “hERG current change (%, negative = inhibition) at 1uM” value was 16.4%.
Under `O=C(Cn1cccc1)N1CCN(c2ccc(F)cc2)CC1` stands 7.59%; under `CC(C)S(=O)(=O)N1CCCC(C(=O)c2cccc(Cl)c2)C1` (stereo not shown), 13.6%.
As for `COc1ccc(NC(=O)Cn2nnc(C(=O)NCc3ccccc3OC)c2N)cc1Cl`, the figure is 11.2%; as for `CC(=O)/C(N=Nc1cc2c(cc1[N+](=O)[O-])OCCO2)=C(\C)O`, 16.6%; as for `CCC(=O)OC1(C(=O)CCl)[C@@H](C)C[C@H]2[C@@H]3CCC4=CC(=O)C=C[C@]4(C)[C@@]3(F)[C@@H](O)C[C@@]21C` (stereo partly shown), 11.9%.
For `COC(=O)c1ccc(/C=C2\SC(=S)N(CCCC(=O)NCCCN3CCOCC3)C2=O)cc1`, the “hERG current change (%, negative = inhibition) at 1uM” value turned out to be 6.04%.
With `Cc1ccc(CNc2cc(-c3nn4c(C)nnc4s3)ccc2C)s1`, the “hERG current change (%, negative = inhibition) at 1uM” value amounted to 15.1%.
Regarding `Cc1cc(C)c(NC(=O)CSc2nc3ncc(Br)cc3[nH]2)c(C)c1`, the “hERG current change (%, negative = inhibition) at 1uM” value stood at 17.1%.
`O=C(CNC(=O)c1ccc2c(c1)OCCO2)N/N=C/c1ccco1`: the “hERG current change (%, negative = inhibition) at 1uM” value is recorded as 20.1%.
Turning to `O=C(NC1CCS(=O)(=O)C1)c1sc2ccccc2c1Cl` (stereo not shown), the “hERG current change (%, negative = inhibition) at 1uM” value turned out to be 8.36%.
As to `COc1ccccc1NC(=O)NC1(C(=O)N2CCC(O)CC2)CCCCC1`, the “hERG current change (%, negative = inhibition) at 1uM” value is listed as 10.5%.
Regarding `COc1ccc(C(=O)c2coc3ccc(O)c(CN4CCCC4)c23)cc1`, the “hERG current change (%, negative = inhibition) at 1uM” value is reported as -56.9%.
Under `NC(=O)NCc1cccnc1` stands 9.22%.
